# According to US20160369264A1 (HOWARD HUGHES MEDICAL INSTITUTE, published 2016):
# B1: p3Z-42-Spycatcher fusion (designed binder)
# chain: MGAMVDTLSGLSSEQGQSGDMTIEEDS[about 80 residues not shown]GKATKGDAHIGSGSGGMHNNRLQLSRLERVYQSEQAEKLLLAGVMLRDPARFDLRGSLTHGRDVEIDTNVIIEGNVSLGNRVKIGTGCVIKNSAIGDDCEISPYTVVEDAVLAAACTIGPFARLRPGAVLLEGAHVGNFVEMKKAVLGKGSKAGHLTYLGDAAIGDNVNIGAGTITCNYDGANKFTTIIGDDVFVGSDTQLVAPVSVGKGATIAAGTTVTRNVGANALAISRVPQTQKEGWRRPVKKK
# notes: Used as a 2D array in E. coli pellet material; also called p3Z-42-SC; p3Z-42-Spycatcher array
# Biological target: the molecule itself
# Assay: self-assembly of fusion trimers; negative-stain TEM of E. coli pellet
# Description: Synthetic genes of each fusion were obtained and protein was expressed in Escherichia coli cells using a standard T7 based expression vector (Table 2). The protein expression was verified by sodium dodecyl sulfate polyacrylamide gel electrophoresis (SDS-PAGE) after separation of the soluble and insoluble cell portions. Samples of observed protein in the cellular pellets were analyzed for array formation by negative-stain Transmission Electron Microscopy (TEM). […] It is worth noting that 5/7 of the remaining fusions either shared a similar sequence and unknown but potentially similar structures (2 unpublished binding proteins) or were either the same molecular weight or much larger than the p3Z-42 monomer protein (3 proteins between ˜25-35 kDa).
protein,measurement,value
B1,binding result,binds
